# Assay results published in the supplement of paper PMC7826260.
# Some of the results follow. Viral Rep nickase domains cut single-stranded DNA in vitro (1 h at 37 °C, 3 µM enzyme); the outer parts of the 90-letter strands are left off. The score is log2 (uncut reads / reads without enzyme); strong cutting gives strongly negative numbers. There is no active / inactive call. Because reads are shares of a total, they shift together, so uncut sequences can rise above 0 when many others are cut.
# Tested on: T1, Rep nickase domain of tomato golden mosaic virus
# T1 sequence (protein, residues 1-124, tag omitted): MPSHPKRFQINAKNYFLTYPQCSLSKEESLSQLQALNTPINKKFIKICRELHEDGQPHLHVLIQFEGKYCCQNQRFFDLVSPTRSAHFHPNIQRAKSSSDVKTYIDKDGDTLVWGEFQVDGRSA
# Test: uncleaved DNA left, log2 of reads against the no-enzyme library (log2 ratio); higher = less cleavage (more negative = more Rep cleavage of the k-mer); sequences stand for … in CTCGTCCG…ACCGGAGA
# Procedure: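 A pool of 90-nt single-stranded DNAs with seven random bases just before the constant AC of the nick site (name = the seven bases) was cut by 3 µM recombinant His6-SUMO-tagged Rep nickase domain (300 nM DNA, 50 mM HEPES pH 8.0, 50 mM NaCl, 1 mM MnCl2, 1 h, 37 °C, three replicates). Uncut DNA was amplified and sequenced.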
row,Sequence,uncleaved DNA left (log2)
1,AGGCGAA,-0.0546
2,ACATCAG,0.00229
3,AGGCCTC,0.00545
4,AAGACGG,0.15
5,GGGGAAA,0.0486
6,CGATTAC,-0.143
7,CCATCCG,-0.119
8,TTCCAGG,-0.0585
9,ACCCACT,-0.0205
10,CGAGCGA,-0.0309
11,TTCCGAG,-0.0149
12,ATCTGGG,0.0146
13,CCTTTTA,-0.0219
14,TAATGCC,-1.78
15,GAACAGG,-0.00555
16,GGTACGT,0.034
17,GCAGGGC,0.106
18,TTCAACG,-0.142
19,ACTACGG,0.087
20,AATGCTG,0.0495

row,Sequence,uncleaved DNA left (log2)
1,CGCAGAC,-0.00705
2,GGTTTAA,0.183
3,AGGCACG,0.00433
4,AGATACT,-0.0367
5,TGATTGA,0.0859
6,ATGAACT,0.0594
7,CATAGTA,-0.00165
8,GTTTCTT,0.0916
9,TGGATCT,-0.172
10,GCAATGT,-0.00721
11,ATAATAA,0.0109
12,TCATAAT,-0.464
13,TGCACTA,0.0899
14,CAAGACT,-0.264
15,CAACTTT,-0.503
16,AGATCCC,-0.0682
17,AGAAGTG,0.136
18,CAGCATT,-0.19
19,TCTAGAC,-0.0172
20,CACGTCG,-0.0612
